Substitutions are numbered along the chain they refer to.
B1: 182 (antibody)
heavy: EVQLVQSGAEVKKPGASVKVSCKVSGYTLTELSMQWVRQAPGKGLEWMGGFDPDSGETMYAEKFQGRLTVTEDTSTDTVYMELRSLTSEDTALYFCATSPGYDFFDYWGQGTLVTVSSASTKGPSVFPLAPSSKSTSGGTAALGCLVKDYFPEPVTVSWNSGALTSGVHTFPAVLQSSGLYSLSSVVTVPSSSLGTQTYICNVNHKPSNTKVDKRV[omitted - human IgG1 Fc with changes]
light: SYVLTQPPSVSVAPGQTARITCGGSDIGDEIVHWYQQKPGQAPVLVVYDDSDRPSGIPERFSGSNSGNTATLTISRVEAGDEADYYCQVWDSSSDHLIFGGGTKLTVLGQPKAAPSVTLFPPSSEELQANKATLVCLISDFYPGAVTVAWKADSSPVKAGVETTTPSKQSNNKYAASSYLSLTPEQWKSHRSYSCQVTHEGSTVEKTVAPTECS
B2: 177 (antibody)
heavy: EVQLVQSGAEVKKPGASVKVSCKVSGYTLTELSMQWVRQAPGKGLEWMGGFDPDSGETMYAEKFQGRLTVTEDTSTDTVYMELSSLRSEDTAVYFCATSPGYDFFDYWGQGTLVTVSSASTKGPSVFPLAPSSKSTSGGTAALGCLVKDYFPEPVTVSWNSGALTSGVHTFPAVLQSSGLYSLSSVVTVPSSSLGTQTYICNVNHKPSNTKVDKRV[omitted - human IgG1 Fc with changes]
light: B1 light with V77A, E78Q
B3: 186 (antibody)
heavy: EVQLVQSGAEVKKPGASVKVSCKVSGYTLTELSMQWVRQAPGKGLEWMGGFDPDAGETMYAEKFQGRLTVTEDTSTDTVYMELSSLRSEDTAVYFCATSPGYDFFDYWGQGTLVTVSSASTKGPSVFPLAPSSKSTSGGTAALGCLVKDYFPEPVTVSWNSGALTSGVHTFPAVLQSSGLYSLSSVVTVPSSSLGTQTYICNVNHKPSNTKVDKRV[omitted - human IgG1 Fc with changes]
light: B1 light
B4: 171 (antibody)
heavy: EVQLVQSGAEVKKPGASVKVSCKVSGYTLTELSMQWVRQAPGKGLEWMGGFDPDAGETMYAEKFQGRLTVTEDTSTDTVYMELRSLTSEDTALYFCATSPGYDFFDYWGQGTLVTVSSASTKGPSVFPLAPSSKSTSGGTAALGCLVKDYFPEPVTVSWNSGALTSGVHTFPAVLQSSGLYSLSSVVTVPSSSLGTQTYICNVNHKPSNTKVDKRV[omitted - human IgG1 Fc with changes]
light: B1 light with V77A, E78Q
B5: 181 (antibody)
heavy: EVQLVQSGAEVKKPGASVKVSCKVSGYTLTELSMQWVRQAPGKGLEWMGGFDPDAGETMYAEKFQGRLTVTEDTSTDTVYMELRSLTSEDTALYFCATSPGYDFFDYWGQGTLVTVSSASTKGPSVFPLAPSSKSTSGGTAALGCLVKDYFPEPVTVSWNSGALTSGVHTFPAVLQSSGLYSLSSVVTVPSSSLGTQTYICNVNHKPSNTKVDKRV[omitted - human IgG1 Fc with changes]
light: B1 light
B6: 77 (antibody)
heavy: EVQLVQSGAEVKKPGASVKVSCKVSGYTLTELSMQWVRQAPGKGLEWMGGFDPDSGETMYAEKFQGRLTVTEDTSTDTVYMELRSLTSEDTALYFCATSPGYDFFDYWGQGTLVTVSSASTKGPSVFPLAPSSKSTSGGTAALGCLVKDYFPEPVTVSWNSGALTSGVHTFPAVLQSSGLYSLSSVVTVPSSSLGTQTYICNVNHKPSNTKVDKRV[omitted - human IgG1 Fc with changes]
light: B1 light with Q16K, S25N, D26N, D29S, E30K, I31S, S94N, H96L
B7: 76 (antibody)
heavy: EVQLVQSGAEVKKPGASVKVSCKVSGYTLTELSMQWVRQAPGKGLEWMGGFDPDAGETMYAEKFQGRLTVTEDTSTDTVYMELRSLTSEDTALYFCATSPGYDFFDYWGQGTLVTVSSASTKGPSVFPLAPSSKSTSGGTAALGCLVKDYFPEPVTVSWNSGALTSGVHTFPAVLQSSGLYSLSSVVTVPSSSLGTQTYICNVNHKPSNTKVDKRV[omitted - human IgG1 Fc with changes]
light: B1 light with Q16K, S25N, D26N, D29S, E30K, I31S, S94N, H96L
B8: 81 (antibody)
heavy: EVQLVQSGAEVKKPGASVKVSCKVSGYTLTELSMQWVRQAPGKGLEWMGGFDPDAGETMYAEKFQGRLTVTEDTSTDTVYMELSSLRSEDTAVYFCATSPGYDFFDYWGQGTLVTVSSASTKGPSVFPLAPSSKSTSGGTAALGCLVKDYFPEPVTVSWNSGALTSGVHTFPAVLQSSGLYSLSSVVTVPSSSLGTQTYICNVNHKPSNTKVDKRV[omitted - human IgG1 Fc with changes]
light: B1 light with Q16K, S25N, D26N, D29S, E30K, I31S, S94N, H96L
B9: 82 (antibody)
heavy: EVQLVQSGAEVKKPGASVKVSCKVSGYTLTELSMQWVRQAPGKGLEWMGGFDPDSGETMYAEKFQGRLTVTEDTSTDTVYMELSSLRSEDTAVYFCATSPGYDFFDYWGQGTLVTVSSASTKGPSVFPLAPSSKSTSGGTAALGCLVKDYFPEPVTVSWNSGALTSGVHTFPAVLQSSGLYSLSSVVTVPSSSLGTQTYICNVNHKPSNTKVDKRV[omitted - human IgG1 Fc with changes]
light: B1 light with Q16K, S25N, D26N, D29S, E30K, I31S, S94N, H96L
B10: 136 (antibody)
heavy: EVQLVQSGAEVKKPGASVKVSCKVSGYTLTELSMQWVRQAPGKGLEWMGGFDPDSGETMYAEKFQGRLTVTEDTSTDTVYMELRSLTSEDTALYFCATSPGYDFFDYWGQGTLVTVSSASTKGPSVFPLAPSSKSTSGGTAALGCLVKDYFPEPVTVSWNSGALTSGVHTFPAVLQSSGLYSLSSVVTVPSSSLGTQTYICNVNHKPSNTKVDKRV[omitted - human IgG1 Fc with changes]
light: B1 light with Q16K, S25D, D26N, D29S, E30K, I31S, S94N, H96L
B11: 135 (antibody)
heavy: EVQLVQSGAEVKKPGASVKVSCKVSGYTLTELSMQWVRQAPGKGLEWMGGFDPDAGETMYAEKFQGRLTVTEDTSTDTVYMELRSLTSEDTALYFCATSPGYDFFDYWGQGTLVTVSSASTKGPSVFPLAPSSKSTSGGTAALGCLVKDYFPEPVTVSWNSGALTSGVHTFPAVLQSSGLYSLSSVVTVPSSSLGTQTYICNVNHKPSNTKVDKRV[omitted - human IgG1 Fc with changes]
light: B1 light with Q16K, S25D, D26N, D29S, E30K, I31S, S94N, H96L

target: T1, recombinant MBP-mutCALR Type 1 fusion protein (Homo sapiens, UniProt P27797, DEL40-40); experiment: Biacore SPR binding kinetics, Experiment 2 (parental and variant antibodies); conditions: Biacore 8K, 25° C., 1:1 binding model
T1 construct: His6 (N); purchased Cepter (cepterbiopartners.com), custom made
Description: The amino acid sequence of recombinant MBP-mutCALR Type 1 fusion protein used in Experiments 1 and 2 is:
Experiment 2: Recombinant MBP-mutCALR Type 1 fusion protein was custom made at Cepter (cepterbiopartners.com). Data for the interaction of antibodies with recombinant mutCALR protein were collected at 25° C. on a Biacore 8K instrument (Cytiva, Marlborough, Mass.), and all reagents were obtained from Cytiva unless otherwise specified. The experiments were conducted using Tris-buffered saline (pH 7.2), 0.005% Surfactant P20, 1 mM CaCl2) as running buffer. To prepare the capture surfaces, anti-human IgG (Fc) antibodies (Product #29234600) was amine-coupled onto a CM4 chip (Product #BR100534) under standard conditions using an Amine Coupling Kit (Product #BR100050). Anti-mutCALR antibodies were captured onto the chip surface by injecting over flow cell 2 only at a flow rate of 10 μL/min for 30 seconds. […] Recombinant MBP-mutCALR Type 1 fusion protein was prepared at nominal concentrations of 0, 0.75, 2.22, 6.67, 20, and 60 nM and injected over both flow cells 1 and 2 for 150 seconds at a flow rate of 69 L/min, followed by a 230-second dissociation phase at the same flow rate. The kinetics parameters were obtained by applying 1:1 binding model to fit the data from multiple-cycle injection experiments using Biacore Insight Evaluation software.

Molecule	ka	kd
B1	5.62e+06 M⁻¹ s⁻¹	0.00692 s⁻¹
B2	3.7e+06 M⁻¹ s⁻¹	0.00549 s⁻¹
B3	848000 M⁻¹ s⁻¹	0.00243 s⁻¹
B4	6.57e+06 M⁻¹ s⁻¹	0.0109 s⁻¹
B5	1e+07 M⁻¹ s⁻¹	0.0209 s⁻¹
B6	3.13e+06 M⁻¹ s⁻¹	0.0175 s⁻¹
B7	3.16e+06 M⁻¹ s⁻¹	0.0155 s⁻¹
B8	746000 M⁻¹ s⁻¹	0.00494 s⁻¹
B9	762000 M⁻¹ s⁻¹	0.00475 s⁻¹
B10	756000 M⁻¹ s⁻¹	0.00507 s⁻¹
B11	991000 M⁻¹ s⁻¹	0.00512 s⁻¹

Reference: patent publication US20230272055A1, “ANTI-MUTANT CALRETICULIN (CALR) ANTIBODIES AND USES THEREOF” (Incyte Corporation, priority 2021, published 2023)
